From the supplement of paper PMC12645437, “Orthogonal IMiD-Degron Pairs Induce Selective Protein Degradation in Cells” (ACS Chemical Biology, 2025) come the findings set out here.

First the molecules themselves.
B1: Q9UKT9 (peptide)
chain: FMCEQCGAHFTQKGNLLRHIKL
B2: Q9UKT9 (peptide)
chain: FWCEQCGAVFTQKGNLLRHIKL
B3: Q9UKT9 (peptide)
chain: FKCEICGRIFTQKGNLLRHIKL
B4: Q9UKT9 (peptide)
chain: FMCPVCGAHFTQKGNLLRHIKL
B5: Q9UKT9 (peptide)
chain: FHCNICGANFTQKGNLLRHIKL
B6: Q9UKT9 (peptide)
chain: LLCNQCGFHCTQKGNLLRHIKL
B7: Q9UKT9 (peptide)
chain: FKCEQCGAFFTQKGNLLRHIKL
B8: Q9UKT9 (peptide)
chain: FQCPICGHTFTQKGNLLRHIKL
B9: Q9UKT9 (peptide)
chain: FFCNQCGHWFTQKGNLLRHIKL
B10: Q9UKT9 (peptide)
chain: FTCEICGAIFTQKGNLLRHIKL
B11: Q9UKT9 (peptide)
chain: LWCEICGFWCTQKGNLLRHIKL
B12: Q9UKT9 (peptide)
chain: FFCDQCGATFTQKGNLLRHIKL
B13: Q9UKT9 (peptide)
chain: FLCNICGAEFTQKGNLLRHIKL
B14: Q9UKT9 (peptide)
chain: FECNQCGAWFTQKGNLLRHIKL
B15: Q9UKT9 (peptide)
chain: FLCDVCGACFTQKGNLLRHIKL
B16: Q9UKT9 (peptide)
chain: FMCPVCGATFTQKGNLLRHIKL
B17: Q9UKT9 (peptide)
chain: FICDVCGAFFTQKGNLLRHIKL
B18: Q9UKT9 (peptide)
chain: FHCDVCGAPFTQKGNLLRHIKL
B19: Q9UKT9 (peptide)
chain: FSCEICGAYFTQKGNLLRHIKL
B20: Q9UKT9 (peptide)
chain: FTCDQCGAAFTQKGNLLRHIKL
B21: Q9UKT9 (peptide)
chain: FYCEVCGAGFTQKGNLLRHIKL
B22: Q9UKT9 (peptide)
chain: FWCNICGAVFTQKGNLLRHIKL
B23: Q9UKT9 (peptide)
chain: FKCEICGHKFTQKGNLLRHIKL
B24: Q9UKT9 (peptide)
chain: FSCPVCGACFTQKGNLLRHIKL
B25: Q9UKT9 (peptide)
chain: FICDICGAIFTQKGNLLRHIKL
B26: Q9UKT9 (peptide)
chain: LLCEICGFACTQKGNLLRHIKL
B27: Q9UKT9 (peptide)
chain: FGCNVCGACFTQKGNLLRHIKL
B28: Q9UKT9 (peptide)
chain: FGCPICGRFFTQKGNLLRHIKL
B29: Q9UKT9 (peptide)
chain: FNCNQCGHCFTQKGNLLRHIKL
B30: Q9UKT9 (peptide)
chain: FMCEICGHLFTQKGNLLRHIKL
B31: Q9UKT9 (peptide)
chain: FQCEQCGAGFTQKGNLLRHIKL
B32: Q9UKT9 (peptide)
chain: FWCNQCGHSFTQKGNLLRHIKL

This is one part of the list.
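Note: jurkat cells carrying a lentiviral library of mutant zinc finger degrons fused to EGFP plus mCherry, mCherry+ cells FACS sorted, degron abundance counted by next-generation sequencing.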

The target in the experiment is no compound (DMSO). Nature of the experiment: log2 fold change of degron read counts, EGFP-low vs EGFP+ sorted cells; higher = lower degron-EGFP level without compound (poor expression or instability). As to conditions: compound: DMSO control; 18 h.
Take B1: the “log2 fold change of degron read counts” value was -1.21.

As for B2, the “log2 fold change of degron read counts” value is 0.113.

As to B3, the “log2 fold change of degron read counts” value is -0.731.

On to B4, for which the “log2 fold change of degron read counts” value is -0.179.

Take B5: the “log2 fold change of degron read counts” value was -0.812.

On to B6, for which the “log2 fold change of degron read counts” value is 0.915.

As to B7, the “log2 fold change of degron read counts” value is -1.62.

For B8, the “log2 fold change of degron read counts” value was -0.283.

Take B9: the “log2 fold change of degron read counts” value worked out at 1.02.

For B10, the “log2 fold change of degron read counts” value was -1.3.

Turning to B11, the “log2 fold change of degron read counts” value came out at 2.55.

For B12, the “log2 fold change of degron read counts” value was -1.02.

For B13, the “log2 fold change of degron read counts” value was -1.65.

As for B14, the “log2 fold change of degron read counts” value is -0.486.

In the case of B15, the “log2 fold change of degron read counts” value is -0.829.

With B16, the “log2 fold change of degron read counts” value was -0.233.

In the case of B17, the “log2 fold change of degron read counts” value was -1.2.

Regarding B18, the “log2 fold change of degron read counts” value is -0.603.

As to B19, the “log2 fold change of degron read counts” value was -0.204.

For the sequence B20, the “log2 fold change of degron read counts” value is -1.79.

Consider B21, for which the “log2 fold change of degron read counts” value was -1.66.

On to B22, for which the “log2 fold change of degron read counts” value stood at 1.07.

Regarding B23, the “log2 fold change of degron read counts” value is -1.91.

For the sequence B24, the “log2 fold change of degron read counts” value is -0.358.

Regarding B25, the “log2 fold change of degron read counts” value was -0.54.

On to B26, for which the “log2 fold change of degron read counts” value stood at 0.449.

Take B27: the “log2 fold change of degron read counts” value was determined as 0.0994.

On to B28, for which the “log2 fold change of degron read counts” value worked out at 1.02.

Consider B29, for which the “log2 fold change of degron read counts” value was 0.566.

For B30, the “log2 fold change of degron read counts” value was -1.11.

Take B31: the “log2 fold change of degron read counts” value is -2.84.

In the case of B32, the “log2 fold change of degron read counts” value came out at 0.52.
